In PMC7160150:
Results are given in words; binding and its absence hold for the method and conditions named. Binding seen in cells or lysates may run through a third protein. Some binding calls cover weakened binding; strength is not graded here. Where a sequence is shown, tags or fusion partners need not be part of it.

Tests used:
Conditions in all cases: remark: other sources report otherwise
[1] = biological target: MYC3-nLUC (Arabidopsis thaliana (Col-0)), Q9FIP9; assay: split reporter; split luciferase complementation; nLUC and cLUC fusions coexpressed in N. benthamiana leaves; luciferase activity detected 2 days after infiltration
[2] = biological target: cYFP-MYC3 (Arabidopsis thaliana (Col-0)), Q9FIP9; assay: split reporter; bimolecular fluorescence complementation; cYFP and nYFP fusions coinfiltrated into N. benthamiana leaves; YFP fluorescence 2 days after infiltration
[3] = biological target: GFP-MYC3 (Arabidopsis thaliana (Col-0)), Q9FIP9; assay: co-IP; total protein extracts of transgenic Arabidopsis plants expressing Myc- and GFP-tagged proteins; GFP-Trap agarose beads, 4 °C 1 h; 50 mM Tris-HCl pH 7.5, 150 mM NaCl, Triton X-100; blot with anti-GFP and anti-Myc
[4] = biological target: MYC3-CFP (Arabidopsis thaliana (Col-0)), Q9FIP9; assay: FRET or BRET; FRET-FLIM; CFP and YFP fusions coinfiltrated into N. benthamiana leaves; CFP fluorescence lifetime 2 days after coinfiltration

B1: cLUC-PPD1, Q7XA73 1-313 (protein)
chain: MDVGVSPAKSILAKPLKLLTEEDISQLTREDCRKFLKDKGMRRPSWNKSQAIQQVLSLKALYEPGDDSGAGIFRKILVSQPVNPPRVTTTLIEPSNELEACGRVSYPEDNGACHRMDSPRSAEFSGGSGHFVSEKDGHKTTISPRSPAETSELVGQMTIFYSGKVNVYDGIPPEKARSIMHFAANPIDLPENGIFASSRMISKLISKEKMMELPQKGLEKANSSRDSGMEGQANRKVSLQRYREKRKDRKFSKAKKCPGVASSSLEMFLNCQPRMKAAYSQNLGCTGSPLHSQSPESQTKSPNLSVDLNSEGI
B1 was tested, and the binding [1] was “binds”.

B2: nYFP-PPD2, Q8GY55 1-315 (protein)
chain: MDVGVTTAKSILEKPLKLLTEEDISQLTREDCRKFLKEKGMRRPSWNKSQAIQQVLSLKALYEPGDDSGAGILRKILVSQPPNPPRVTTTLIEPRNELEACGRIPLQEDDGACHRRDSPRSAEFSGSSGQFVADKDSHKTVSVSPRSPAETNAVVGQMTIFYSGKVNVYDGVPPEKARSIMHFAANPIDLPENGIFASSRMISKPMSKEKMVELPQYGLEKAPASRDSDVEGQANRKVSLQRYLEKRKDRRFSKTKKAPGVASSSLEMFLNRQPRMNAAYSQNLSGTGHCESPENQTKSPNISVDLNSDLNSEDN
B2 was tested, and the binding [2] was “binds”.

B3: Myc-PPD1, Q7XA73 1-313 (protein)
chain: B1 chain
In the case of B3, the binding [3] is reported as “binds”.

B4: Myc-PPD2, Q8GY55 1-315 (protein)
chain: B2 chain
B4 was tested, and the binding [3] was “binds”.

B5: cLUC-PPD2, Q8GY55 1-315 (protein)
chain: B2 chain
In the case of B5, the binding [1] is reported as “binds”.

B6: PPD1-YFP, Q7XA73 1-313 (protein)
chain: B1 chain
With B6 the binding [4] was “binds”.

B7: PPD2-YFP, Q8GY55 1-315 (protein)
chain: B2 chain
B7 was tested, and the binding [4] was “binds”.

B8: nYFP-PPD1, Q7XA73 1-313 (protein)
chain: B1 chain
With B8 the binding [2] was “binds”.
